Some of the results follow.
Legend:
Assay in all cases: glycan array binding signal (z-score within array); higher = stronger binding
Settings in all cases: glycan notation: IUPAC condensed, linker removed
[1] = molecular target: Neu5Ac(a2-6)Gal(b1-4)GlcNAc(b1-2)Man(a1-3)[Man(a1-6)]Man(b1-4)GlcNAc(b1-4)GlcNAc
Procedure, shortened: (§1)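 The binding signal is a Z-score computed within each array. Data were drawn from 3228 arrays in the Consortium for Functional Glycomics database, restricted to those with a known protein sequence. Scores were averaged over arrays of the same protein sequence at different concentrations or buffers, and over linkers, and negative values can be taken as non-binding.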

[2] = molecular target: Neu5Ac(a2-6)Gal(b1-4)GlcNAc(b1-2)Man(a1-3)[Neu5Ac(a2-3)Gal(b1-4)GlcNAc(b1-2)Man(a1-6)]Man(b1-4)GlcNAc(b1-4)GlcNAc
Procedure, shortened: as §1

[3] = molecular target: Neu5Ac(a2-6)Gal(b1-4)GlcNAc(b1-2)Man(a1-3)[Neu5Ac(a2-6)Gal(b1-4)GlcNAc(b1-2)Man(a1-6)]Man(b1-4)GlcNAc(b1-4)GlcNAc
Procedure, shortened: as §1

[4] = molecular target: Neu5Ac(a2-6)Gal(b1-4)GlcNAc(b1-2)Man(a1-3)[Neu5Ac(a2-6)Gal(b1-4)GlcNAc(b1-2)Man(a1-6)]Man(b1-4)GlcNAc(b1-4)[Fuc(a1-6)]GlcNAc
Procedure, shortened: as §1

[5] = molecular target: Neu5Ac(a2-6)Gal(b1-4)GlcNAc(b1-2)Man(a1-6)Man(b1-4)GlcNAc(b1-4)GlcNAc
Procedure, shortened: as §1

[6] = molecular target: Neu5Ac(a2-6)Gal(b1-4)GlcNAc(b1-2)Man(a1-6)[Gal(b1-4)GlcNAc(b1-2)Man(a1-3)]Man(b1-4)GlcNAc(b1-4)GlcNAc
Procedure, shortened: as §1

[7] = molecular target: Neu5Ac(a2-6)Gal(b1-4)GlcNAc(b1-2)Man(a1-6)[GlcNAc(b1-2)Man(a1-3)]Man(b1-4)GlcNAc(b1-4)GlcNAc
Procedure, shortened: as §1

[8] = molecular target: Neu5Ac(a2-6)Gal(b1-4)GlcNAc(b1-2)Man(a1-6)[Man(a1-3)]Man(b1-4)GlcNAc(b1-4)GlcNAc
Procedure, shortened: as §1

[9] = molecular target: Neu5Ac(a2-6)Gal(b1-4)GlcNAc(b1-2)[Neu5Ac(a2-6)Gal(b1-4)GlcNAc(b1-4)]Man(a1-3)[GlcNAc(b1-4)][Neu5Ac(a2-6)Gal(b1-4)GlcNAc(b1-2)[Neu5Ac(a2-6)Gal(b1-4)GlcNAc(b1-6)]Man(a1-6)]Man(b1-4)GlcNAc(b1-4)GlcNAc
Procedure, shortened: as §1

[10] = molecular target: Neu5Ac(a2-6)Gal(b1-4)GlcNAc(b1-2)[Neu5Ac(a2-6)Gal(b1-4)GlcNAc(b1-4)]Man(a1-3)[GlcNAc(b1-4)][Neu5Ac(a2-6)Gal(b1-4)GlcNAc(b1-4)Man(a1-6)]Man(b1-4)GlcNAc(b1-4)GlcNAc
Procedure, shortened: as §1

[11] = molecular target: Neu5Ac(a2-6)Gal(b1-4)GlcNAc(b1-2)[Neu5Ac(a2-6)Gal(b1-4)GlcNAc(b1-6)]Man(a1-6)[Neu5Ac(a2-6)Gal(b1-4)GlcNAc(b1-2)Man(a1-3)][GlcNAc(b1-4)]Man(b1-4)GlcNAc(b1-4)GlcNAc
Procedure, shortened: as §1

[12] = molecular target: Neu5Ac(a2-6)Gal(b1-4)GlcNAc(b1-3)Gal(b1-3)GlcNAc
Procedure, shortened: as §1

[13] = molecular target: Neu5Ac(a2-6)Gal(b1-4)GlcNAc(b1-3)Gal(b1-4)GlcNAc
Procedure, shortened: as §1

[14] = molecular target: Neu5Ac(a2-6)Gal(b1-4)GlcNAc(b1-3)Gal(b1-4)GlcNAc(b1-2)Man(a1-3)[Neu5Ac(a2-6)Gal(b1-4)GlcNAc(b1-3)Gal(b1-4)GlcNAc(b1-2)Man(a1-6)]GalNAc
Procedure, shortened: as §1

[15] = molecular target: Neu5Ac(a2-6)Gal(b1-4)GlcNAc(b1-3)Gal(b1-4)GlcNAc(b1-3)Gal(b1-4)GlcNAc
Procedure, shortened: as §1

[16] = molecular target: Neu5Ac(a2-6)Gal(b1-4)GlcNAc(b1-3)Gal(b1-4)GlcNAc(b1-3)Gal(b1-4)GlcNAc(b1-2)Man(a1-3)[Neu5Ac(a2-6)Gal(b1-4)GlcNAc(b1-3)Gal(b1-4)GlcNAc(b1-3)Gal(b1-4)GlcNAc(b1-2)Man(a1-6)]GalNAc
Procedure, shortened: as §1

[17] = molecular target: Neu5Ac(a2-6)Gal(b1-4)GlcNAc(b1-3)Gal(b1-4)GlcNAc(b1-3)GalNAc
Procedure, shortened: as §1

[18] = molecular target: Neu5Ac(a2-6)Gal(b1-4)GlcNAc(b1-3)Gal(b1-4)GlcNAc(b1-3)[Neu5Ac(a2-6)Gal(b1-4)GlcNAc(b1-3)Gal(b1-4)GlcNAc(b1-6)]GalNAc
Procedure, shortened: as §1

[19] = molecular target: Neu5Ac(a2-6)Gal(b1-4)GlcNAc(b1-3)Gal(b1-4)GlcNAc(b1-6)[Gal(b1-3)]GalNAc
Procedure, shortened: as §1

[20] = molecular target: Neu5Ac(a2-6)Gal(b1-4)GlcNAc(b1-3)Gal(b1-4)[Fuc(a1-3)]GlcNAc(b1-3)Gal(b1-4)[Fuc(a1-3)]GlcNAc
Procedure, shortened: as §1

[21] = molecular target: Neu5Ac(a2-6)Gal(b1-4)GlcNAc(b1-3)GalNAc
Procedure, shortened: as §1

[22] = molecular target: Neu5Ac(a2-6)Gal(b1-4)GlcNAc(b1-3)[Neu5Ac(a2-6)Gal(b1-4)GlcNAc(b1-6)]GalNAc
Procedure, shortened: as §1

[23] = molecular target: Neu5Ac(a2-6)Gal(b1-4)GlcNAc(b1-6)GalNAc
Procedure, shortened: as §1

[24] = molecular target: Neu5Ac(a2-6)Gal(b1-4)GlcNAc(b1-6)[Gal(b1-3)GlcNAc(b1-3)]Gal(b1-4)Glc
Procedure, shortened: as §1

[25] = molecular target: Neu5Ac(a2-6)Gal(b1-4)GlcNAc(b1-6)[Gal(b1-3)]GalNAc
Procedure, shortened: as §1

[26] = molecular target: Neu5Ac(a2-6)Gal(b1-4)GlcNAc6S
Procedure, shortened: as §1

[27] = molecular target: Neu5Ac(a2-6)GalNAc
Procedure, shortened: as §1

[28] = molecular target: Neu5Ac(a2-6)GalNAc(b1-4)GlcNAc
Procedure, shortened: as §1

[29] = molecular target: Neu5Ac(a2-6)GalNAc(b1-4)GlcNAc6S
Procedure, shortened: as §1

[30] = molecular target: Neu5Ac(a2-6)GlcNAc(b1-4)GlcNAc
Procedure, shortened: as §1

[31] = molecular target: Neu5Ac(a2-6)GlcNAc(b1-4)GlcNAc(b1-4)GlcNAc
Procedure, shortened: as §1

B1: PVL (Psathyrella velutina), Q309D1_9AGAR (protein)
chain: MSVVVISQALPVPTRIPGVADLVGFGNGGVYIIRNSLLIQVVKVINNFGYDAGGWRVEKHVRLLADTTGDNQPDVVGFGENGVWISTNNGNNTFVDPPKMVLANFAYAAGGWRVEKHIRFMADLRKTGRADIVGFGDGGIYISRNNGGGQFAPAQLALNNFGYAQGWRLDRHLRFLADVTGDGLLDVVGFGENQVYIARNSGNGTFQPAQAVVNNFCIGAGGWTISAHPRVVADLTGDRKADILGFGVAGVYTSLNNGNGTFGAVNLVLKDFGVNSGWRVEKHVRCVSSLTNKKVGDIIGFGDAGVYVALNNGNGTFGPVKRVIDNFGYNQGWRVDKHPRFVVDLTGDGCADIVGFGENSVWACMNKGDGTFGPIMKLIDDMTVSKGWTLQKTVRYAANLYL
In the case of B1, the “glycan array binding signal (z-score)” value [1] is reported as -0.349, the “glycan array binding signal (z-score)” value [2] is reported as -0.264 and the “glycan array binding signal (z-score)” value [3] is reported as -0.173. For the same binder, the “glycan array binding signal (z-score)” value [4] was -0.139, the “glycan array binding signal (z-score)” value [5] was -0.345 and the “glycan array binding signal (z-score)” value [6] was -0.327. For the same binder, the “glycan array binding signal (z-score)” value [7] was 0.631, the “glycan array binding signal (z-score)” value [8] was -0.345 and the “glycan array binding signal (z-score)” value [9] was -0.342. For the same binder, the “glycan array binding signal (z-score)” value [10] was -0.345, the “glycan array binding signal (z-score)” value [11] was -0.358 and the “glycan array binding signal (z-score)” value [12] was -0.297. For the same binder, the “glycan array binding signal (z-score)” value [13] was 0.179, the “glycan array binding signal (z-score)” value [14] was -0.116 and the “glycan array binding signal (z-score)” value [15] was 0.208. For the same binder, the “glycan array binding signal (z-score)” value [16] was 0.259, the “glycan array binding signal (z-score)” value [17] was -0.351 and the “glycan array binding signal (z-score)” value [18] was -0.064. The “glycan array binding signal (z-score)” value [19] was -0.251, the “glycan array binding signal (z-score)” value [20] was -0.396 and the “glycan array binding signal (z-score)” value [21] was -0.353. For the same binder, the “glycan array binding signal (z-score)” value [22] was -0.06, the “glycan array binding signal (z-score)” value [23] was -0.362 and the “glycan array binding signal (z-score)” value [24] was -0.361. The “glycan array binding signal (z-score)” value [25] was -0.355, the “glycan array binding signal (z-score)” value [26] was -0.314 and the “glycan array binding signal (z-score)” value [27] was -0.168. The “glycan array binding signal (z-score)” value [28] was -0.306, the “glycan array binding signal (z-score)” value [29] was -0.368 and the “glycan array binding signal (z-score)” value [30] was 1.12. The “glycan array binding signal (z-score)” value [31] was 0.469.

— the supplement of paper PMC8728848
